Test results published in PubChem BioAssay AID686979 (National Center for Advancing Translational Sciences (NCATS), 2013).
Screen size: about 420,000 compounds; about 50,000 (12%) were called active. Inconclusive means that the source gave no clear call. Such entries were picked first, then a sample of the others. Calls come from the whole dose curve; as a rule, active = well fitted inhibition curve with a large enough effect; inconclusive = small, poorly fitted or top-dose-only effect; inactive = flat fitted curve, though single readings scatter. Potencies of inconclusive entries are left out as doubtful fits.

Assay: qHTS for Inhibitors of human tyrosyl-DNA phosphodiesterase 1 (TDP1): qHTS in cells in presence of CPT; note: nearly all actives have a fitted effect of over 55% in size
Conditions: chicken DT40 Tdp1-/-;hTDP1 cells + 20 nM CPT, ATP luminescence, 48 h; activity change, negative = growth inhibition: at 46.2 µM (top of the series) unless noted
In short: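 Chicken DT40 Tdp1-/- cells complemented with human TDP1, 400 cells/well, exposed to compounds plus 20 nM camptothecin for at least 48 h at 37 C; viability read as ATP content by CellTiter-Glo luminescence.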
% is set by controls: 0 for no effect and ±100 for the full control effect; potency is the fitted concentration of half-maximal effect; tags give direction and shape of the fitted curve.

Row | SMILES | Potency | activity change, negative = growth inhibition
1 | CCc1cc(=O)oc2cc(C)cc(OC(C)C(=O)NCC(O)c3ccccc3)c12 (centres undefined) | inconclusive [inhibitor, single point] | –
2 | CCOC(=O)c1cnn(-c2ccc(C(C)C)cc2)c1NC(=O)C1CCC1 | inconclusive [inhibitor, single point] | –
3 | CCOC(=O)[C@]12CCC=C1N(Cc1ccc3c(c1)OCO3)C(=O)[C@H](CC(=O)NCc1cccc3ccccc13)C2 | inconclusive [inhibitor, single point] | –
4 | CN(C(=O)COC(=O)/C=C/c1ccc(F)cc1)c1c(N)n(Cc2ccccc2)c(=O)[nH]c1=O | inconclusive [inhibitor, single point] | –
5 | CC(=O)N1CC=CC1(CC(C)C)C(=O)NCCN1CCOCC1 (centres undefined) | inactive | –
6 | O=C(COC(=O)C1=COCCO1)NC1CCCCC1 | inconclusive [inhibitor, partial curve] | –
7 | NS(=O)(=O)c1cccc(NC(=O)COC(=O)CN2C(=O)C3CC=CCC3C2=O)c1 (centres undefined) | inconclusive [inhibitor, single point] | –
8 | Cc1ccc(OCC(=O)NCCCNC(=O)c2cnccn2)cc1C | inconclusive [inhibitor, partial curve] | –
9 | c1ccc(OCc2nn3c(Cn4nnc5ccccc54)nnc3s2)cc1 | active: 16.4 µM | –
10 | COc1ccc(NC(=O)NCCCN2CCC(Cc3ccccc3)CC2)cc1 | inconclusive [inhibitor, single point] | –
11 | CCNC(=O)C1(C)CCN(C(=O)c2ccccc2)C1 (centres undefined) | inactive | –
12 | CN(C)C(=O)c1ccc(/C=C/c2ccnc3ccccc23)cc1 | inconclusive [inhibitor, single point] | –
13 | O=C1/C(=C/c2ccncc2)Oc2cc(OS(=O)(=O)c3ccccc3)ccc21 | inconclusive [inhibitor, single point] | –
14 | Cc1ccccc1NC(=O)C(C)O/N=C/c1cccc([N+](=O)[O-])c1 (centres undefined) | inconclusive [inhibitor, partial curve, poor fit] | –
15 | O=C(CCCSc1ccc(Cl)cc1)Nc1ccccc1O | inactive | –
16 | Cc1ccc(-n2nnnc2SC(C)C(=O)NCC(=O)Nc2ccc(F)c(F)c2F)c(C)c1 (centres undefined) | active: 18.4 µM | –
17 | COc1ccc(O)c(C(=O)CC(=O)c2cccnc2)c1 | inconclusive [inhibitor, single point] | –
18 | COc1ccc(-c2c(-c3ccccc3OC)sc3ccccc23)cc1 | inconclusive [inhibitor, single point] | –
19 | COc1ccnc(CS(=O)c2nc3cc(C(O)(F)F)ccc3[nH]2)c1OC (centres undefined) | inactive | –
20 | CCN1CCN(c2ccc(S(=O)(=O)N3CCCCC3)cc2NC(=O)c2ccc(C)c(C)c2)CC1 | inconclusive [inhibitor, single point] | –
21 | O=C(CCc1nc2ccccc2c(=O)[nH]1)N1CCN(c2ccc(F)cc2)CC1 | inconclusive [inhibitor, full curve] | –
22 | Cc1ccc2c(c1)[C@H]1[C@H](CO2)[C@H](c2ccccc2)[C@]2(C)C(=O)N(CC3CCCO3)CC(=O)N12 (some centres undefined) | inactive | –

Row | SMILES | Potency | activity change, negative = growth inhibition
23 | O=C(CC(=O)c1ccccc1)CS(=O)(=O)c1ccccc1 | inconclusive [inhibitor, single point] | –
24 | CCOC(=O)c1c(NC(=O)C(C)Sc2cn(C)c3ccccc23)sc2c1CCC2 (centres undefined) | inconclusive [inhibitor, single point] | –
25 | CCC1CN(CCNC(=O)c2scc3c2OCCO3)Cc2cc(OC)ccc2O1 (centres undefined) | – | inactive: 4.8% [at 9.04 µM]
26 | CC(C)(C)NC(=O)NC(=O)CN1CCN(S(=O)(=O)/C=C/c2ccccc2)CC1 | inconclusive [inhibitor, full curve, poor fit] | –
27 | O=C(NCc1ccc(F)cc1)c1ccc(CS(=O)Cc2ccccc2Cl)o1 (centres undefined) | inconclusive [inhibitor, single point] | –
28 | NCCCN(Cc1ccccc1)c1ccc(Br)cn1 | active: 11.2 µM | –
29 | CC(C)CN1CC(C)C(=O)N(c2ccccc2)C1=O (centres undefined) | inactive | –
30 | Cn1c(SCC(=O)OC2CCCCC2)nnc1-c1ccc2c(c1)OCO2 | inactive | –
31 | Cc1csc(SCC(=O)N2CCOc3ccc(C(O)C4CCCCC4)cc3C2)n1 (centres undefined) | inconclusive [inhibitor, single point] | –
32 | CN(c1cc2c(c3c1ccn3C)C1CCC2C1)C1CCCCC1 (centres undefined) | inconclusive [inhibitor, single point] | –
33 | COc1ccc(-c2cc(C(=O)N3CCN(c4ccccc4F)CC3)c3ccccc3n2)c(OC)c1 | inconclusive [inhibitor, single point] | –
34 | CC(C)c1ccc(NC(=O)CSC2=Nc3ccccc3C3=NC(CC(=O)NC4CCCCC4)C(=O)N23)cc1 (centres undefined) | active: 20.6 µM | –
35 | CCOc1ccc(/C=N/NC(=O)C(C)N(c2ccc(OC)cc2)S(C)(=O)=O)cc1OCC (centres undefined) | inconclusive [inhibitor, single point] | –
36 | Cc1cc(N2CCOCC2)n2ncc(-c3ccccc3)c2n1 | inconclusive [inhibitor, single point] | –
37 | CCC(C(=O)NCc1ccccc1)n1c(-c2ccc3c(c2)CCO3)nc2ccccc21 (centres undefined) | active: 14.6 µM | –
38 | CS/C(=N\S(=O)(=O)c1ccc(F)cc1)c1ccccc1 | inconclusive [inhibitor, single point] | –
39 | CC1SC(=S)N(c2ccc(N(C)C)cc2)C1=O (centres undefined) | inconclusive [inhibitor, partial curve, poor fit] | –
40 | COCc1cc(=O)n2[nH]cc(-c3ccsc3)c2n1 | inactive | –
41 | COC(=O)c1[nH]c2cccc(Cl)c2c1NC(=O)CN(C)C1CCCCC1 | inconclusive [inhibitor, single point] | –
42 | Cc1ccccc1NCCNc1ccccc1C | inactive | –
43 | Cc1nc(N)c(C#N)c(-c2ccccc2Cl)c1C | inconclusive [inhibitor, full curve, poor fit] | –
44 | COc1ccc(-n2nc3c(c2NC(=O)CCl)CSC3)cc1 | active: 2.59 µM | –
